Results taken from ChEMBL document CHEMBL1201862, “PubChem BioAssay data set” (2004).
Structures can show the parent of a compound that is named as a salt.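 Five compound concentrations were applied to cells in 96-well plates for 48 hours; endpoints were derived by simple linear interpolation of the resulting dose-response curve. GI50: concentration for 50% inhibition of growth.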 Active and inactive are the calls of the source. Cut-off read from the data, not from the text of the source: active = GI50 up to about 1.1 µM and inactive = higher. Square brackets hold non-standard residues; d marks the D form. Peptide text beside a SMILES is read from it. * marks the point of attachment. Phe(F5) = N[CH](Cc1c(F)c(F)c(F)c(F)c1F)C(=O)O; Cbz = O=C(OCc1ccccc1)*; Boc = CC(C)(C)OC(=O)*; tBu = CC(C)(C)*

system: NCI-H322M; assay: growth of human tumour cells (NCI), 48 h

| Compound | GI50 |
| --- | --- |
| CCOC(=O)CCn1cnc(N)n1 | inactive: > 100 µM |
| C/C(=N\NC(N)=S)c1ccc(/C(C)=N/NC(N)=S)cc1 | inactive: > 100 µM |
| COC(=O)[C@]12CCC(C)(C)C[C@H]1[C@H]1C(=O)C=C3[C@@]4(C)C=C(C#N)C(=O)C(C)(C)[C@@H]4CC[C@@]3(C)[C@]1(C)CC2 [BARDOXOLONE METHYL] | active: 0.0261 µM |
| Clc1ccc(C2Nc3ccccc3C3=NCCN32)cc1 (stereo not given) | inactive: 17.3 µM |
| Cc1ccc2c(c1)CC1(Cc3ccccc3C1=O)C2=O (stereo not given) | inactive: > 100 µM |
| COc1ccc(O)c2c(=O)ccccc12 | inactive: > 100 µM |
| CC1CC(=O)Nc2cc(Cl)ccc2N1C(=O)C1CC1 (stereo not given) | inactive: > 100 µM |
| CC(=O)c1c(=O)n(-c2ccc(C)cc2)c(O)c2c(N)n[nH]c12 | inactive: > 100 µM |
| O=C1N/C(=N/N=C\c2ccccc2)N/C1=C/c1ccc(Cl)cc1 | inactive: 38.6 µM |
| CC(=O)O[C@H]1C(=O)[C@@]2(C)[C@H]([C@H](OC(=O)c3ccccc3)[C@@]3(O)C[C@H](O)C(C)=C1C3(C)C)[C@]1(OC(C)=O)CO[C@@H]1C[C@@H]2O | inactive: 42 µM |
| CC(C)(C)C(=O)C(C(=O)c1ccccc1)C(=O)C(C)(C)C | inactive: > 100 µM |
| NC(CCCCCCCCCCP(=O)(O)O)C(=O)O (stereo not given) | inactive: > 100 µM |
| CN(C)CC(/C(Cc1ccccc1)=N\NC(=O)c1ccncc1)c1ccccc1 (stereo not given) | inactive: 41.5 µM |
| COCC(C#N)NC1CC(OC2CC(O)(C(=O)CO)Cc3c(O)c4c(c(O)c32)C(=O)c2c(OC)cccc2C4=O)OC(C)C1O (stereo not given) | active: 0.275 µM |
| C=C1C(=O)OC2(C)CCC1CC1OC1(C)CCC=C(C)CCC2O (stereo not given) | inactive: > 100 µM |
| CCOC(=O)c1sc2ncnc(N)c2c1C | inactive: 49.2 µM |
| COC(=O)C(Cc1ccccc1)NC(=O)Cn1ccnc1[N+](=O)[O-] (stereo not given) | inactive: > 100 µM |
| C(/C=C/N1CCCC1)=C\c1nc(N2CCCC2)c2ccccc2n1 | inactive: 75.7 µM |
| C1CC2=C(C1)C1=S(S2)SC2=C1CCC2 | inactive: > 100 µM |
| CC(C)C12C=CC(C)(CC1)n1c(=O)c3cc4ccccc4cc3c(=O)n12 (stereo not given) | inactive: > 100 µM |
| O=P1(Oc2ccc(Cl)cc2)OCCS1 (stereo not given) | inactive: > 100 µM |
| O=C1NCC2=C1CCC1c3ccccc3CCN21 (stereo not given) | inactive: > 100 µM |
| C/C(=C\C(=O)O)C(=O)N(C)c1ccccc1I | inactive: > 100 µM |

| Compound | GI50 |
| --- | --- |
| O=C(O)CCC(NC(=O)c1ccc(Nc2nc3ccccc3nc2-c2cccs2)cc1)C(=O)O (stereo not given) | inactive: > 100 µM |
| NC(=O)c1nnc2cc(F)c(F)cc2c1N | inactive: 48 µM |
| O=c1[nH]cnc2c(COCCCO)c[nH]c12 | inactive: > 100 µM |
| c1ccc(COc2ccc(CC3SCCCS3)cc2)cc1 | inactive: > 100 µM |
| O=C(O)C#CCO | inactive: > 100 µM |
| CN(C)CCOC(=O)COc1ccc(Cl)cc1 [CENTROPHENOXINE HYDROCHLORIDE] | inactive: > 100 µM |
| NNC(=O)CC(=O)Nc1cccc(Cl)c1 | inactive: > 100 µM |
| O=c1[nH]c(=O)n(COCc2ccccc2)c2ccc(Br)cc12 | inactive: > 100 µM |
| O=C(CCl)N1CCN(c2ccccc2)CC1 | inactive: 21.4 µM |
| SC1CCCN(Cc2ccccc2)C1 (stereo not given) | inactive: > 100 µM |
| c1ccc2c(c1)/C(=N\NC1=NCCN1)c1nc3ccccc3nc1-2 | inactive: 3.03 µM |
| O=C(O)CCC(=O)OC1N=C(c2ccccc2Cl)c2cc([N+](=O)[O-])ccc2NC1=O (stereo not given) | inactive: > 100 µM |
| COc1cc(S(=O)(=O)Nc2ccc(-c3csc(/N=C\c4cccc(Oc5ccccc5)c4)n3)cc2)ccc1Cl | inactive: 17.8 µM |
| Sc1nnc(COc2ccc(Cl)cc2Cl)[nH]1 | inactive: > 100 µM |
| C(/C=N/N=C1NCCCCN1)=N\N=C1NCCCCN1 | inactive: > 100 µM |
| C[C@H](N)C(=O)Nc1ccc(-c2nc3ccccc3s2)cc1 | inactive: 21.6 µM |
| CC(C)(C)OC(=O)N1C(C2=COc3ccccc3O2)=COc2ccccc21 | inactive: 34.1 µM |
| O=C(c1ccc(O)cc1)C1c2c3c(cc(O)c2C(c2ccc(O)cc2)C1c1cc(O)cc(O)c1)OC(c1ccc(O)cc1)C3c1cc2c(cc1O)OC(c1ccc(O)cc1)C2c1cc(O)cc(O)c1 (stereo not given) | inactive: > 12.5 µM |
| CCOC(=O)C1=C(Nc2cccc3ccccc23)OCC1=O | inactive: > 100 µM |
| COC(=O)/C=C1\CCC(C)(C(=O)NS(=O)(=O)c2ccc(C)cc2)C1(C)C (stereo not given) | inactive: > 100 µM |
| Cc1cc(N)ccc1/N=N\c1ccc(S(=O)(=O)CCOS(=O)(=O)O)cc1 | inactive: 11.6 µM |
| COc1cc(-c2cc(=O)c3cc(C)c(C)c(C(=O)O)c3o2)cc(OC)c1OC | inactive: > 100 µM |
| NC(=O)NNC(=O)NC12CC3CC(CC(C3)C1)C2 | inactive: > 100 µM |

| Compound | GI50 |
| --- | --- |
| CN(C)/C=C/c1c2c(nc3ccccc13)C(=O)c1cccnc1C2=O | active: 0.649 µM |
| O=C1Nc2ccccc2C1(O)Cc1ccccn1 (stereo not given) | inactive: > 100 µM |
| COc1ccccc1/C=N/C12CC3CC(CC(C3)C1)C2 | inactive: > 100 µM |
| CCOC(=O)C1(Br)S(=O)(=O)OCCOS1(=O)=O | inactive: > 100 µM |
| O=C1c2cccc3cccc(c23)C(=O)N1O | inactive: 90.8 µM |
| Cc1c(C2=C(Br)C(=O)N(C)C2=O)c(=O)n(C)c(=O)n1C | inactive: > 100 µM |
| CSc1nc(NC2CC2)c2c(n1)Sc1nc3ccccc3n1N=C2 | inactive: 11.7 µM |
| CCOP(=O)(OCC)C1CC(O)CN1OC(=O)C(C)(C)C (stereo not given) | inactive: > 100 µM |
| Cc1ccccc1C(=O)N1CCc2c([nH]c3ccccc23)C1 | inactive: 36.5 µM |
| O=C1NC(N2CCOCC2)=N/C1=C\c1ccc(O)cc1 | inactive: > 100 µM |
| O=C(O)c1cc(=O)c2c([nH]c3ccccc32)s1 | inactive: > 100 µM |
| COc1ccc2c3c1OC1C(=O)C=CC4(O)C(C2)NCC[C@@]314 (stereo not given in full) | inactive: 7.62 µM |
| COC(=O)C(Cc1ccc2c(c1)OCO2)(NC(=O)c1ccccc1)P(=O)(OC)OC (stereo not given) | inactive: > 100 µM |
| CC(=O)OCc1cccc(O)c1C(=O)CCC=C(C)C | inactive: > 100 µM |
| COc1cc(CC(C)N[C@@H](C)c2ccccc2)cc(OC)c1 (stereo not given in full) | inactive: > 100 µM |
| COC(=O)c1ccccc1C1CN=NC12Cc1ccc3c(c1C2=O)CCC3 (stereo not given) | inactive: > 100 µM |
| O=C([O-])C[n+]1ccccc1.c1ccncc1 | inactive: > 100 µM |
| O=[N+]([O-])c1cc(C2SCc3nc4ccccc4n32)ccc1Cl (stereo not given) | inactive: 40.9 µM |
| NC(=O)CC(N/C=C1/N=C(c2ccccc2)OC1=O)C(=O)O (stereo not given) | inactive: > 100 µM |
| CNC(=O)O/N=C1\N(C)CN(c2ccccc2)C12CCN(CCCC(=O)c1ccc(F)cc1)CC2 | inactive: 45.7 µM |
| CC(=O)Nc1ccc2c3c(cc(O)c2c1)N(C(=O)CCCC(=O)Nc1ccc2c4c(cc(O)c2c1)N(C(=O)OC(C)(C)C)CC4CCl)CC3CCl (stereo not given) | inactive: 3 µM |
| CC[C@@H](/C=C\CCC1(C[C@@H](N)CCC=C(C)C)OCCO1)O[Si](C(C)C)(C(C)C)C(C)C | inactive: 17.5 µM |
| COc1ccc(C2c3cc4c(cc3OC(NCCO)C2C)OCO4)cc1 (stereo not given) | inactive: 28.9 µM |

| Compound | GI50 |
| --- | --- |
| C=C(C)C12CC(COC(=O)c3ccccc3)C34OC5(OC1C3C1OC1(CO)C(O)C1(O)C(OC(=O)c3ccccc3)C(C)C(C(C)CCCCCCC5O)C14)O2 (stereo not given) | inactive: > 100 µM |
| COC(=O)c1cc2c(n1S(=O)(=O)c1ccc(C)cc1)C(=O)C(=O)c1[nH]cc(C(=O)OCc3ccccc3)c1-2 | active: 0.175 µM |
| O=C(NC1CCC(=O)N1C(=O)OCc1ccccc1)OCc1ccccc1 (stereo not given) | inactive: > 100 µM |
| O=S1(=O)COc2ccccc2-c2ncncc21 | inactive: > 100 µM |
| Cc1ccc2c(ccc3[nH]cc(CNc4ccc(NS(C)(=O)=O)cc4)c32)n1 | inactive: 30.7 µM |
| Cc1nc(-c2cc3cc([N+](=O)[O-])ccc3oc2=O)cs1 | inactive: > 100 µM |
| C=CCc1cccc2cc(C(=O)Nc3nc(C45CC6CC(CC(C6)C4)C5)cs3)c(=O)oc12 | inactive: 26.3 µM |
| CCC1NC(=O)C(NC(=O)c2ncccc2O)C(C)OC(=O)C(c2ccccc2)NC(=O)C2CC(=O)CCN2C(=O)C(Cc2ccccc2)N(C)C(=O)C2CCCN2C1=O (stereo not given) | inactive: > 100 µM |
| COC(=O)C(CC(C)C)NC(=O)C(Cc1c[nH]cn1)NC(=O)CNC(=O)C(NC(=O)C(C)NC(=O)C(Cc1c[nH]c2ccccc12)NC(=O)C(CCC(=O)O)NC(=O)C(N)Cc1c(F)c(F)c(F)c(F)c1F)C(C)C (stereo not given) (H-[Phe(F5)]EWAVGHL-OMe; configuration not given here) | inactive: > 12.5 µM |
| O=C1NC2c3c(I)sc(I)c3/C(=N\O)C2O1 (stereo not given) | inactive: > 100 µM |
| COc1cc([C@@H]2c3cc4c(cc3[C@@H](NCc3cccc(F)c3)C3COC(=O)[C@@H]32)OCO4)cc(OC)c1O (stereo not given in full) | inactive: 18.6 µM |
| OC1COC2CC(Nc3ccccn3)OC12 (stereo not given) | inactive: > 100 µM |
| Cc1ccc(S(=O)(=O)C(CC(NC=O)S(=O)(=O)c2ccc(C)cc2)NC=O)cc1 (stereo not given) | inactive: > 100 µM |
| CC(OC(C)(C)C)C(NC(=O)C(CCCCNC(=O)OC(C)(C)C)NC(=O)C(Cc1c[nH]c2ccccc12)NC(=O)C(Cc1ccccc1)NC(=O)OCc1ccccc1)C(=O)NC(Cc1ccccc1)C(=O)O (stereo not given) (Cbz-FWK(Boc)T(tBu)F-OH; configuration not given here) | inactive: 38.1 µM |
| Oc1c(CNCCCN2CCCC2)cc(Cl)c2cccnc12 | inactive: 6.47 µM |
| COc1cccc(C(=O)O)c1Cc1cccc2ccccc12 | inactive: > 100 µM |
| COc1cc2c(cc1O)[C@H](C)C(c1ccc(Cl)cc1)O2 (stereo not given in full) | inactive: 24 µM |
| Cc1cc(C)nc(NS(=O)(=O)c2ccc(NC(=O)c3cccc4c(Nc5ccc(S(=O)(=O)Nc6nc(C)cc(C)n6)cc5)c5ccccc5nc34)cc2)n1 | inactive: 20.8 µM |
| O=[N+]([O-])c1ccc2[nH]nc(OCc3ccccn3)c2c1 | inactive: > 100 µM |
| S=C1N(c2ccc(Cl)cc2)C2=C(/N=N/c3ccccc3)C(=Nc3ccccc3S2)N1c1ccccn1 | inactive: 11.1 µM |
| O=C(Nc1ccc2[nH]c(C(=O)N3CC(CCl)c4ccc([N+](=O)[O-])cc43)cc2c1)c1cc2ccccc2o1 (stereo not given) | inactive: > 1100 µM |
